Experimental data reported in patent US20250282824A1, “Inhibitors of the Wnt Signaling Pathway and Uses Thereof” (Stichting VU, priority 2021, published 2025).
Residues, ends and D or L forms follow the SMILES beside them.

What was measured:
[1] = molecular target: T1, β-catenin/TCF-4 interaction (Homo sapiens, UniProt P35222); test: FP competition of the β-catenin/TCF-4 interaction (titration and 30 μM pre-screening); type: binding; conditions: for inhibition at 30 µM: read-out: Inhibition of the TCF/β-catenin interaction, 30 μM competitor, 0% = no competitor, 100% = E-CBD at 30 μM, singlets
T1 construct: a solution of 1 μM β-catenin (aa 1-781) and 40 nM FITC-labeled TCF-4 peptide was prepared; 3C protease recognition site (C); His6 (C); made in house; host or cells: Escherichia coli BL21 (DE3), pET-28a(+); the tracer is a synthetic peptide
T1 sequence (P35222 1-781): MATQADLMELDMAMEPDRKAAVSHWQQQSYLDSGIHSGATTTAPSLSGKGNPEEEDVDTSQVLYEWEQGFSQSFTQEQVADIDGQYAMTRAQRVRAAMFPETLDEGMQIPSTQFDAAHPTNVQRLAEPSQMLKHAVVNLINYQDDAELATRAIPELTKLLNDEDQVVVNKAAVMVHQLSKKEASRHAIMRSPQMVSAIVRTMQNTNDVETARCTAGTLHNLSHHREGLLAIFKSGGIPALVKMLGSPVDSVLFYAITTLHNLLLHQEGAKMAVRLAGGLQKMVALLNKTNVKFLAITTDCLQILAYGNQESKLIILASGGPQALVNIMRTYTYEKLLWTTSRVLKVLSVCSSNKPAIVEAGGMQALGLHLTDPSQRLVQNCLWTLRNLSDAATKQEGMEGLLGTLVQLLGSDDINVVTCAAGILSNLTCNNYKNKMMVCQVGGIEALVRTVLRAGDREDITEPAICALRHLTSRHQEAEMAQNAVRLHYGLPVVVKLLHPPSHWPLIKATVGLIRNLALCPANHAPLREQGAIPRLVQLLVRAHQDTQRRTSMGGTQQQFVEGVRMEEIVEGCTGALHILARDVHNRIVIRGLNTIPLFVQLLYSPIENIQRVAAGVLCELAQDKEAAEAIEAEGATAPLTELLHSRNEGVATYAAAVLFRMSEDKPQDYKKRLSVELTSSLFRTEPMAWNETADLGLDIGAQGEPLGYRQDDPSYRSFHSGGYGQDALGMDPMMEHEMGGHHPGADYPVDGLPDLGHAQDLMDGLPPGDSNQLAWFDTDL

Wnt signaling pathway = test: TOPFLASH reporter gene assay in HEK293T cells; conditions: Wnt-3a 100 ng/ml, 24 h, concentration not given

SMILES	IC50 [1]	inhibition at 30 µM [1]	rel. reporter activity (positive control) (Wnt signaling pathway)
CC(C)C[C@@H]1NC(=O)[C@H](CC(C)C)NC(=O)[C@H](CO)NC(=O)[C@H](CC(=O)O)NC(=O)[C@@H]2CCCN2C(=O)[C@H]2CCCN2C(=O)[C@H](C(C)C)NC(=O)[C@H](CC(=O)O)NC(=O)[C@H](CC(N)=O)NC(=O)[C@H](CCCNC(=N)N)NC(=O)[C@@H]2CSCCCCSC[C@H](NC1=O)C(=O)N[C@@H](Cc1ccccc1)C(=O)NCCC(=O)NCCC(=O)N[C@@H](C(C)C)C(=O)N2 [A-b5, [βA-V-[C-R-N-D-V-p-P-D-S-L-L-C]-F-βA]/b5] (HELM PEPTIDE1{[bAla].V.C.R.N.D.V.[dP].P.D.S.L.L.C.F.[bAla]}|CHEM1{[C(CC[*:2])C[*:1]]}$PEPTIDE1,CHEM1,3:R3-1:R1|PEPTIDE1,CHEM1,14:R3-1:R2|PEPTIDE1,PEPTIDE1,1:R1-16:R2$$$V2.0)	8.5 to 11 µM	> 50%	
CC(C)C[C@@H]1NC(=O)[C@H](CC(C)C)NC(=O)[C@H](CO)NC(=O)[C@H](CC(=O)O)NC(=O)[C@@H]2CCCN2C(=O)[C@H]2CCCN2C(=O)[C@H](C(C)C)NC(=O)[C@H](CC(=O)O)NC(=O)[C@H](CC(N)=O)NC(=O)[C@H](CCCNC(=N)N)NC(=O)[C@@H]2CSCc3ccccc3CSC[C@H](NC1=O)C(=O)N[C@@H](Cc1ccccc1)C(=O)NCCC(=O)NCCC(=O)N[C@@H](C(C)C)C(=O)N2 [A-b7, [βA-V-[C-R-N-D-V-p-P-D-S-L-L-C]-F-βA]/b7] (HELM PEPTIDE1{[bAla].V.C.R.N.D.V.[dP].P.D.S.L.L.C.F.[bAla]}|CHEM1{[c1ccc(C[*:2])c(C[*:1])c1]}$PEPTIDE1,CHEM1,3:R3-1:R1|PEPTIDE1,CHEM1,14:R3-1:R2|PEPTIDE1,PEPTIDE1,1:R1-16:R2$$$V2.0)	8.5 to 11 µM	> 50%	
CC(C)C[C@@H]1NC(=O)[C@H](CC(C)C)NC(=O)[C@H](CO)NC(=O)[C@H](CC(=O)O)NC(=O)[C@@H]2CCCN2C(=O)[C@H]2CCCN2C(=O)[C@H](C(C)C)NC(=O)[C@H](CC(=O)O)NC(=O)[C@H](CC(N)=O)NC(=O)[C@H](CCCNC(=N)N)NC(=O)[C@H](CS)NC(=O)[C@H](C(C)C)NC(=O)CCNC(=O)CCNC(=O)[C@H](Cc2ccccc2)NC(=O)[C@H](CS)NC1=O [A-o, [βA-V-C-R-N-D-V-p-P-D-S-L-L-C-F-βA]] (HELM PEPTIDE1{[bAla].V.C.R.N.D.V.[dP].P.D.S.L.L.C.F.[bAla]}$PEPTIDE1,PEPTIDE1,1:R1-16:R2$$$V2.0)		< 25%	
CC(C)C[C@@H]1NC(=O)[C@H](CS)NC(=O)[C@H](CC(=O)O)NC(=O)[C@@H]2CCCN2C(=O)[C@H]2CCCN2C(=O)[C@H](C(C)C)NC(=O)[C@H](CS)NC(=O)[C@H](CC(N)=O)NC(=O)[C@H](CCCNC(=N)N)NC(=O)[C@H]([C@@H](C)O)NC(=O)[C@H](C(C)C)NC(=O)CCNC(=O)CCNC(=O)[C@H](Cc2ccccc2)NC(=O)[C@H](C(C)C)NC(=O)[C@H](CC(C)C)NC1=O [C-o, [βA-V-T-R-N-C-V-p-P-D-C-L-L-V-F-βA]] (HELM PEPTIDE1{[bAla].V.T.R.N.C.V.[dP].P.D.C.L.L.V.F.[bAla]}$PEPTIDE1,PEPTIDE1,1:R1-16:R2$$$V2.0)		< 25%	
Oc1nc(-c2ccc(C(F)(F)F)cc2)nc2c1CSCC2 [XAV939, reference compound]			30%
